Consider 84 compounds from ChEMBL document CHEMBL4888484, “Replenishing the malaria drug discovery pipeline: Screening and hit evaluation of the MMV Hit Generation Library 1 (HGL1) against asexual blood stage Plasmodium falciparum ,using a nano luciferase reporter read-out” (2022).

In all, about 150,000 compounds went through this assay and about 540 (0.36%) showed an effect of 50% or more. Some of the results follow.

The subject of this test is Plasmodium falciparum. The test can be described thus: Primary screen in NF54 nanoGlo assay, in single point, at 2uM, 72h; a lower Z score goes with more inhibition. As to conditions: timepoint 72 hour. Format: functional, Erythrocyte.
In the case of `Cc1nnc(-c2nnc(NCc3cccnc3)c3ccccc23)o1`, the % Inhibition (usually the drop in the measured response relative to a control, in per cent) was found to be 4% and the Z score was -0.81.
With `O=C(CCc1nc2ccccc2s1)N1CCC[C@H](Nc2ccc3c(c2)OCCO3)C1`, the “% Inhibition” value is listed as -12% and the Z score was determined as 2.25.
The corresponding values for `Cc1noc(C)c1Cc1nc(CC(N)=O)nn1C1Cc2ccccc2C1` are -26% and 2.32.
Consider `CC(=O)Nc1cccc(-c2noc(C3CCC3)n2)c1`, for which the “% Inhibition” value was -12% and the Z score is on record as 2.08.
In the same order, the values of `CC(C)Nc1cc(-c2cncnc2)nc(N)n1` are -6% and 0.94.
Consider `CNC(=O)[C@@H]1CN(C(=O)c2c[nH]c3ccccc23)C[C@H]1CO`, for which the “% Inhibition” value is listed as 3% and the Z score was -0.5.
In the same order, the values of `O=C1N[C@@H](CC(=O)N2CCN(Cc3ccccc3Cl)CC2)C(=O)Nc2ccccc21` are 4% and -0.48.
In the same order, the values of `Cc1occc1C(=O)N1CCC2(CC1)CC(=O)N(C/C=C/c1ccccc1)C2` are 2% and -0.33.
In the same order, the values of `Cc1ccc(CN[C@H]2C[C@H]3C(=O)N4CCC[C@@H]4C(=O)N3C2)cc1F` are -4% and 0.47.
`O=C(Cn1c(=O)n(Cc2ccccc2F)c(=O)c2sccc21)Nc1cc(F)cc(F)c1`: the “% Inhibition” value was 7% and the Z score is given as -0.85.
`O=C(CN1CCN(Cc2cccc(Cl)c2)C1=O)NC1CC1`: the “% Inhibition” value was 43% and the Z score is recorded as -5.73.
The corresponding values for `COc1ccc(-n2nc3nc(N4CCCC4)nc(-c4cccc(F)c4)c3c2N)cc1` are 8% and -0.81.
In the same order, the values of `Cc1cc(CN(C)Cc2cc(C(=O)O)sc2C)no1` are -6% and 0.98.
The corresponding values for `COc1ccc(N2CCN(C(=O)CNc3ccc(OC)c(N4CCOC4=O)c3)CC2)cc1` are 5% and -1.1.
With `CC[C@@H](CO)N(Cc1cscn1)c1ccccc1`, the “% Inhibition” value is recorded as -9% and the Z score was determined as 0.94.
Take `CC1CN(Cc2cccc3c2OCCO3)CC(C)S1(=O)=O` (stereo not drawn): the “% Inhibition” value is reported as -5% and the Z score is given as 0.77.
The corresponding values for `C[C@H](Nc1ccccc1NC(=O)CN1CC(=O)N(C)C1=O)c1ccccc1` are -4% and 0.57.
In the same order, the values of `COc1ccc(-[n+]2c(-c3ccccc3)cn3c2CCC3)cc1` are 79% and -11.37.
Take `Cn1cc(C#N)cc1C(=O)N1CCC2(CCC(=O)N(C[C@H]3CCCO3)C2)CC1`: the “% Inhibition” value is reported as -7% and the Z score was determined as 0.86.
In the same order, the values of `CCS(=O)(=O)C[C@H](C)N(C)c1cc(C#N)nc(C)n1` are -2% and 0.22.
In the same order, the values of `C=CCCCN1CCC2(CC1)CCN(C(=O)OC(C)(C)C)CC2` are -14% and 1.5.
`c1ccc(-c2c3c(cc4ccccc24)C[N+]2(CCOCC2)C3)cc1`: the “% Inhibition” value is given as -3% and the Z score was found to be 0.48.
The corresponding values for `Cc1cccc(COc2cccc(CC(=O)N3CC[C@@H](N)C3)c2)c1` are -4% and 0.41.
The corresponding values for `Cc1oc(Br)cc1C(=O)N1CCC[C@H](CCO)CC1` are -3% and 0.59.
The corresponding values for `CCOc1nnc(CN2CCC[C@H]2C(=O)Nc2ccc(OC)cc2)s1` are -1% and 0.17.
Regarding `CC(NC(C)C1CC2CCC1C2)C(=O)NC(=O)NC1CC1` (stereo not drawn), the “% Inhibition” value was -4% and the Z score was 0.72.
Turning to `CC(C)(CNC(=O)[C@]1(O)CCOC1)C1CCC1`, the “% Inhibition” value is listed as -6% and the Z score worked out at 0.77.
In the same order, the values of `O=S(=O)(c1ccc2c(c1)OCCCO2)N(Cc1ccccc1)CC1CCC1` are -2% and 0.24.
In the same order, the values of `COC(=O)c1cc(C2CC2)nc2c1c(=O)n(CC(=O)N1CCCC[C@@H]1C)c(=O)n2-c1ccccc1` are -13% and 1.7.
In the same order, the values of `C[C@H](N(C)C(=O)C12CC(C1)C2)C(C)(C)O` are -15% and 2.78.
As to `Cc1noc(C)c1CN1CCc2c(C(=O)NC[C@H](C)N3CCCC3)csc2C1`, the “% Inhibition” value turned out to be 0% and the Z score was -0.02.
The corresponding values for `Cc1oc(C)c(C(=O)Nc2cccc3c2C(=O)NC3)c1Br` are -7% and 0.74.
In the same order, the values of `CN1CCC2(CC1)CN(C(=O)C1(O)CC(C)(C)C1)Cc1ccccc12` are -1% and 0.09.
The corresponding values for `CN(CCc1ncon1)C(=O)[C@]1(c2ccccc2)CC1(C)C` are 0% and -0.03.
As for `O=C(O)Cn1ccc(NC(=O)C2CCc3ccccc3CC2)n1`, the “% Inhibition” value was determined as 0% and the Z score amounted to 0.01.
In the same order, the values of `CC(=O)c1ccc(-c2cc(N)nc(N(C)C)n2)cc1` are -3% and 0.48.
The corresponding values for `Cn1cc(CN2CCC[C@H](C(N)=O)C2)c(-c2cccs2)n1` are 6% and -0.83.
Turning to `NC[C@H]1CCCN1C(=O)c1cc(O)nc2ccc(Br)cc12`, the “% Inhibition” value is -3% and the Z score is 0.41.
The corresponding values for `c1ccc(CCCc2nnnn2Cc2ccon2)cc1` are -2% and 0.22.
`CC1=CCN(C(=O)Nc2cccc(OCC(=O)N3CCOCC3)c2)CC1`: the “% Inhibition” value was 6% and the Z score is on record as -0.85.
With `O=C(c1ccc(-c2ccsc2)cc1)N1CCC(N2C(=O)COC2=O)CC1`, the “% Inhibition” value is reported as -17% and the Z score is 3.17.
The corresponding values for `N[C@@H](Cc1c(F)cccc1Cl)C(=O)O` are -2% and 0.19.
In the same order, the values of `CC(C)C[C@@H](CN(C)C)NC(=O)NCc1nc(-c2cccs2)n[nH]1` are 3% and -0.37.
For `Cc1c(CNC2CCCCCC2)c(C(=O)O)c(C)n1Cc1c(F)cccc1Cl`, the “% Inhibition” value came out at 5% and the Z score was -0.72.
The corresponding values for `N#Cc1cccc(N2CCC3(CC2)C[C@H](c2ccccc2)CN(C2CC2)C3)n1` are -8% and 1.65.
In the same order, the values of `CC[C@H](CNC(=O)NCc1n[nH]c(=O)[nH]1)Cc1ccccc1` are -5% and 0.55.
The corresponding values for `CC1CN(CCCN2CC(C)OC(C3CC3)C2)CC(C2CC2)O1` (stereo not drawn) are -4% and 0.42.
Turning to `c1ccc(N2CCN(Cc3cccn3-c3nnc(N4CCCCC4)s3)CC2)nc1`, the “% Inhibition” value is -13% and the Z score is 1.31.
In the same order, the values of `CCCN1C(=O)c2c(C(=O)NCc3ccc(OC)cc3OC)ncn2C[C@@]1(C)C(=O)NC1CCCC1` are -10% and 1.96.
Take `CC(C)(Oc1ccc(Cl)cc1)C(=O)N1CC(c2nc(-c3ccccn3)no2)C1`: the “% Inhibition” value was -15% and the Z score was found to be 2.18.
In the same order, the values of `CS(=O)(=O)Nc1cccc(Cl)c1Br` are 7% and -0.84.
In the same order, the values of `CC(C)(C)NC[C@H](O)COc1c(F)cc(Br)cc1F` are 10% and -1.27.
On to `Cn1ccc2ccc(CN3CCn4nc(CNc5ncccn5)cc4C3)cc21`, for which the “% Inhibition” value worked out at 0% and the Z score is -0.07.
The corresponding values for `CCC[C@@H](C(=O)NCCN1CCOCC1)n1c(Cc2ccccc2Cl)nc2cc(C)c(C)cc21` are -9% and 1.61.
The corresponding values for `O=C(NCC1(O)CCC1)N[C@@H](Cc1ccccc1)C1CC1` are -16% and 1.88.
In the same order, the values of `CC(Oc1cccnc1)C(=O)N1CCOCC1C1CC1` (stereo not drawn) are -1% and 0.1.
Regarding `CC1CCC(N(C(=O)[C@H]2CCCN(C(=O)c3ccc(Cl)cc3)C2)C2CC2)CC1` (stereo partly drawn), the “% Inhibition” value was -7% and the Z score came to 1.21.
In the same order, the values of `Fc1ccc(-c2nc3c(cnn3C3CCCC3)[nH]2)cc1` are -6% and 0.81.
As for `Cc1ccc(C(=O)N(C)Cc2ccc(Br)o2)cn1`, the “% Inhibition” value is listed as -17% and the Z score is recorded as 2.32.
In the same order, the values of `CCN1CCO[C@H](C(=O)NCc2ccc(Cn3cccn3)cc2)C1` are 6% and -0.7.
The corresponding values for `COC(=O)c1ncn2c1C(=O)N(Cc1cccc(OC)c1)[C@](C)(C(=O)NC1CCCC1)C2` are -9% and 1.32.
Regarding `O=C1NCCN1C(=O)N1CCO[C@H](c2ccccc2)C1`, the “% Inhibition” value was -2% and the Z score came to 0.37.
The corresponding values for `CCNC(=O)CNS(=O)(=O)c1cc(N(C)C)ccc1Br` are -1% and 0.08.
In the same order, the values of `O=C(O)C1CC=CCC1C(=O)Nc1nc(-c2cccc3ccccc23)cs1` (stereo not drawn) are -30% and 3.54.
In the case of `O=C(CC1(C(=O)O)CCCC1)Nc1ccc2[nH]ncc2c1`, the “% Inhibition” value is reported as -1% and the Z score is given as 0.11.
Regarding `Cc1ccccc1CC(=O)N1CCc2[nH]nc(C(=O)N3CCN(c4ccccc4)CC3)c2C1`, the “% Inhibition” value is given as 7% and the Z score was -0.87.
In the same order, the values of `C[C@H]1CCCCN1C(=O)C1CCN(c2ncnc3c2nc2n3CCCCC2)CC1` are -10% and 1.62.
The corresponding values for `O=C(NCCN1C(=O)CCCC1=O)C1CC1C1CC1` (stereo not drawn) are -15% and 2.28.
In the same order, the values of `Cc1ccnn1CC(=O)N1CCC(O)(CNc2ncc(C#N)cc2Cl)CC1` are 13% and -1.5.
On to `Cn1cc(-c2nccnc2CNS(=O)(=O)c2cccs2)cn1`, for which the “% Inhibition” value is reported as -8% and the Z score turned out to be 0.96.
In the same order, the values of `Cn1nc(C2CCCCC2)cc1NC(=O)C[C@H]1CCCS(=O)(=O)C1` are 16% and -1.89.
The corresponding values for `Cc1ccc(NC(=O)Cn2c(=O)n(-c3ccc(F)cc3)c(=O)c3c2cc(C)n3C)cc1F` are -18% and 1.7.
The corresponding values for `O=C(NCCO)NC1CCC(F)(F)CC1` are 9% and -1.11.
Consider `Cc1ccc(F)c(C(=O)N2CCN3C(=O)NC(=O)[C@@H]3C2)c1`, for which the “% Inhibition” value is on record as -16% and the Z score stood at 2.11.
In the same order, the values of `COc1cccc(NC(=O)C2Cc3cc(C(F)(F)F)ccc3N3CCN(c4ccccc4F)CC23)c1` (stereo not drawn) are -10% and 1.15.
In the same order, the values of `COc1cnc(NC(=O)NC[C@H]2[C@H](c3ccccc3)C2(F)F)s1` are 2% and -0.38.
In the same order, the values of `CCN1CCN(c2nc3ncn(CC(=O)Nc4ccc(Br)c(C)c4)c(=O)c3s2)CC1` are -9% and 1.5.
In the case of `Cc1cc(C(=O)N2C[C@@H]3CC[C@H]2CN(CCCc2ccccc2)C3)nc(C)n1`, the “% Inhibition” value is -12% and the Z score turned out to be 1.15.
In the same order, the values of `c1cncc(-c2nc(-c3ccncc3)no2)c1` are -14% and 1.82.
As for `O=C(Nc1ccc(OCCc2ccccn2)cc1)N1C[C@H]2CC=CC[C@H]2C1`, the “% Inhibition” value was -10% and the Z score is listed as 1.71.
In the same order, the values of `CCOCc1nnc(NCc2c(C)nn(C)c2C)o1` are -15% and 1.29.
In the same order, the values of `Cc1nnc2ccc(-c3noc(-c4cccc5[nH]ccc45)n3)cn12` are -12% and 2.06.
`CC(C)(C)n1cc(CN2CCC[C@@H](CO)[C@H]2C(F)(F)F)nn1`: the “% Inhibition” value is on record as -1% and the Z score was 0.08.
The corresponding values for `CC1CCC2(CC1)OC[C@@H](C(=O)N1CCCC1)N2C(=O)c1ccc(C(F)(F)F)cc1` (stereo partly drawn) are -6% and 0.69.
